In all, about 410,000 compounds went through this assay and about 6,400 (1.6%) were called active. Inconclusive means that the source gave no clear call. Such entries were picked first, then a sample of the others. Calls come from the whole dose curve; as a rule, active = well fitted inhibition curve with a large enough effect; inconclusive = small, poorly fitted or top-dose-only effect; inactive = no such curve, though single readings can be large or run the other way. No potency is given beside an inconclusive call; the fits are too rough.
biological target: Glucagon-like peptide 1 receptor (Homo sapiens) (UniProt P43220); assay: qHTS of GLP-1 Receptor Inverse Agonists (Inhibition Mode); conditions: HEK293 GLP-1R CRE-luciferase, luminescence, 24 h, GLP-1R form is constitutively active; activity change, negative = inhibition: at 38.3 µM (top of the series) unless noted; note: nearly all actives have a fitted effect of over 55% in size
Sequence of UniProt P43220 (P43220 whole entry, looked up): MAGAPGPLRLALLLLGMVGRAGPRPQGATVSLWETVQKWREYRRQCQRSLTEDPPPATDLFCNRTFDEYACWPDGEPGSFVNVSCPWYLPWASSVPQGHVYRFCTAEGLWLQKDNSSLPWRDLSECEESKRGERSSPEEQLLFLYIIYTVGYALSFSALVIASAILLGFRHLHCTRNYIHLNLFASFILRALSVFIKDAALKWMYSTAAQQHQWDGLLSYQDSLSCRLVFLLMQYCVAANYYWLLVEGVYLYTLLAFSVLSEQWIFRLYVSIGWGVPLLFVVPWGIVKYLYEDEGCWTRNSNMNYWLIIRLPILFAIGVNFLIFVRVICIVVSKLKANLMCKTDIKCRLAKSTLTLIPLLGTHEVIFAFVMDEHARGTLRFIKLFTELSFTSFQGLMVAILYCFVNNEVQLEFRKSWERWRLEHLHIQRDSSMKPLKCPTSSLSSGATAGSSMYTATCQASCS
How it was run: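 Inverse agonism was detected as reduced cAMP-driven luciferase luminescence after 24 h compound treatment. The cells were HEK293 clones expressing constitutively active human GLP-1R with the reporter. Reporter-only and GPR119 cell lines served as counterscreen controls.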
% is set by controls: 0 for no effect and ±100 for the full control effect; potency is the fitted concentration of half-maximal effect; tags give direction and shape of the fitted curve.

| Compound | Potency | activity change, negative = inhibition |
| --- | --- | --- |
| CSc1ccccc1NC(=S)Nc1cc(C)cc(C)c1 | inconclusive [inhibitor, single point] |  |
| Cc1nn(CC(O)COc2ccc3c(c2)CCC3)c(C)c1C (stereo not drawn) | inconclusive [inhibitor, single point] |  |
| O=C1NCCc2c1[nH]c1c(Cl)ccc(Cl)c21 | inconclusive [inhibitor, single point] |  |
| Cc1ccc(NC(=O)CN(C)C(=O)COC(=O)[C@@H](NC(=O)c2ccccc2F)C(C)C)cc1 |  | inactive: 1.46% |
| COc1cc(OC)c2c(-c3cccc(-c4sccc4C(C)=O)c3)cc(=O)oc2c1 | inconclusive [inhibitor, full curve, poor fit] |  |
| COc1cccc(C(=O)N2CCN(C3CCC(c4ccccc4)CC3)CC2)c1 (stereo not drawn) | inconclusive [inhibitor, single point] |  |
| Cc1ccc(NC(=O)CN2C(=O)NC(Cc3c[nH]c4ccccc34)C2=O)cc1 (stereo not drawn) | inconclusive [inhibitor, partial curve] |  |
| Cc1ccc(S(=O)(=O)N2CCN(C(=O)CCOc3cc(C)ccc3C)CC2)cc1 | inconclusive [inhibitor, single point] |  |
| CCOC(=O)C1(CCOc2ccccc2)CCN(Cc2cccn2-c2cccnc2)CC1 | inconclusive [inhibitor, partial curve, poor fit] |  |
| Nc1ccc(C(=O)OCCCc2nc3ccccc3[nH]2)cc1 |  | inactive: 3.58% |
| O=C(NNc1cc(Cl)ccc1Cl)c1cccs1 | inconclusive [inhibitor, full curve, poor fit] |  |
| OCC1(CCc2ccccc2)CCCN(CCCc2ccccc2)C1 (stereo not drawn) | inconclusive [inhibitor, partial curve, poor fit] |  |
| CC(C)N(Cc1ccccc1)C(=O)CN1C(=O)NC2(CCCc3ccccc32)C1=O (stereo not drawn) | inconclusive [inhibitor, partial curve, poor fit] |  |
| COc1cc(-c2cnc3c(NC=O)cc(-c4ccccc4Cl)cn23)cc(OC)c1OC | inconclusive [inhibitor, full curve, poor fit] |  |
| CCCN1CCN(c2cc3c(cc2F)c(=O)c(S(=O)(=O)c2ccc(CC)cc2)cn3CC)CC1 | inconclusive [inhibitor, single point] |  |
| O=C(C(Cc1ccccc1)n1cccc1)N1CCc2ccccc21 (stereo not drawn) | inconclusive [inhibitor, partial curve, poor fit] |  |
| C/C=C/c1ccc(OCC(O)CNCCc2ccc(OC)cc2)c(OC)c1 (stereo not drawn) | inconclusive [inhibitor, partial curve, poor fit] |  |
| CCOC(=O)C1(Cc2cccc(Cl)c2)CCCN(C(=O)C2CC2)C1 (stereo not drawn) | inconclusive [inhibitor, single point] |  |
| Cc1cccc(NC(=S)Nc2ccc(N3CCOCC3)cc2)c1C | inconclusive [inhibitor, single point] |  |

| Compound | Potency | activity change, negative = inhibition |
| --- | --- | --- |
| CCc1nc2ccc(C(=O)Nc3cc(-c4ccccc4)ccc3OC)cn2c1N(C)Cc1nccs1 | inconclusive [inhibitor, partial curve, poor fit] |  |
| COc1ccccc1-n1c(=S)[nH]c2c(sc(=S)n2-c2ccc(C)cc2C)c1=O | inconclusive [inhibitor, partial curve, poor fit] |  |
| Cc1nn(Cc2ccccc2)c(Cl)c1/C=N/NC(=O)CNc1cccc(C(F)(F)F)c1 | inconclusive [inhibitor, partial curve] |  |
| COc1ccc(-c2noc(N3CCC(C(=O)N(C)c4ccccc4)CC3)n2)cc1 | inconclusive [inhibitor, partial curve, poor fit] |  |
| O=C(CN1CCN(Cc2ccc(Cl)cc2)CC1)N/N=C/c1cccc(F)c1 | inconclusive [inhibitor, full curve, poor fit] |  |
| O=C(C[C@@H]1C/C=C\CC[C@@H](Cc2ccc(F)cc2)C(=O)OC[C@@H]2CCCN2C1=O)N[C@H](CO)Cc1ccccc1 | inconclusive [inhibitor, single point] |  |
| O=C(c1ccc(F)cc1)N1CCCCC(Sc2nnnn2-c2ccccc2)C1=O (stereo not drawn) | inconclusive [inhibitor, single point] |  |
| Cc1ccc([C@H]2C[C@H](n3cc(-c4ccc(F)cc4)nn3)[C@@H](O)CN2C(=O)c2cccs2)cc1 | inconclusive [inhibitor, partial curve, poor fit] |  |
| C(=N\c1nccs1)/Nc1nccs1 | inconclusive [inhibitor, partial curve, poor fit] |  |
| CCCn1c(=N)n(CC(O)COc2ccccc2OC)c2ccccc21 (stereo not drawn) | inconclusive [inhibitor, partial curve, poor fit] |  |
| Cc1cccc(N(Cc2cc3ccccc3[nH]c2=O)C(=O)c2cccc(Cl)c2)c1 | inconclusive [inhibitor, single point] |  |
| O=C(Nc1ccc2nccnc2c1)c1cnccn1 |  | inactive: 34.9% |
| OC(c1ccccc1)(c1ccccc1)C1CCN(CCCOc2ccccc2Cl)CC1 | inconclusive [inhibitor, single point] |  |
| Cc1cccc(CCNC(=O)c2ccc(CSCc3cccc(Cl)c3)o2)c1 | inconclusive [inhibitor, single point] |  |
| Cc1sc2nc(SCCN(C)C)n(-c3ccccc3)c(=O)c2c1-c1ccc(F)cc1 | inconclusive [inhibitor, full curve, poor fit] |  |
| CC1(C)CC(=O)C(C=Nc2ccc3[nH]ncc3c2)=C(O)C1 |  | inactive: -5.14% |
| O=C(CSc1ccc(F)cc1)NCCc1ccc(Cl)cc1 | inconclusive [inhibitor, single point] |  |
| CCOC(=O)CN1C(=O)C(Sc2n[nH]c(-c3ccc(O)cc3)n2)CCc2ccccc21 (stereo not drawn) | inconclusive [inhibitor, single point] |  |
| CC(=O)NC(=S)Nc1ccccc1N1CCCCC1 | inconclusive [inhibitor, single point] |  |
